From PubChem BioAssay AID1745845 (National Center for Advancing Translational Sciences (NCATS), 2022)
The campaign covered roughly 360,000 compounds. About 2,600 (0.72%) were called active. The shares of active, inactive and inconclusive entries below differ from those in the screen. Calls come from the whole dose curve; as a rule, active = well fitted inhibition curve with a large enough effect; inconclusive = small, poorly fitted or top-dose-only effect; inactive = no such curve, though single readings can be large or run the other way. A potency beside an inconclusive call is a rough fit, not a confirmed value.

experiment: Primary qHTS for Inhibitors of ATXN expression; conditions: HEK-293 ATXN2-luciferase reporter, luminescence, 24 h; series mostly up to 57 µM; note: nearly all actives have a fitted effect of over 55% in size
Summary of the method: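 qHTS (up to 57 uM final) was run with 24 h compound exposure of reporter cells at 37 °C. Each well was multiplexed: SteadyGlo luminescence measured ATXN2-luciferase expression after a fluorogenic Gly-Phe-AFC viability readout (25 uM final).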
Potency is the fitted concentration of half-maximal effect; tags give direction and shape of the fitted curve.

Row | SMILES | Potency
1 | Cc1ccc(C)c(Nc2nnc(-c3ccc(C)c(S(=O)(=O)NCC4CCCO4)c3)c3ccccc23)c1 (stereo not given) | inconclusive: 39.8 µM [inhibitor, single point]
2 | COc1ccc(/C=C\C(=O)O[C@@H]2C(O)C(O[C@@H]3OC(C)[C@H](O[C@@H]4OCC(O[C@H]5O[C@H](CO)[C@@H](O)C(O)C5O)C(O)C4O)C(O)C3O)[C@H](OC(=O)[C@]34CCC(C)(C)C[C@@H]3C3=CCC5[C@@]6(C)CC(O)C(O[C@@H]7OC(CO)C(O)[C@H](O)[C@H]7O)[C@@](C)(C(=O)O)C6CC[C@@]5(C)[C@]3(CO)CC4)O[C@H]2C)cc1 (stereo not given in full) | active: 7.08 µM
3 | COCCCNC(=O)c1ccc2c3c(onc13)-c1ccccc1C2=O | inconclusive: 23.8 µM [inhibitor, single point]
4 | COc1ccc(-c2c(C)c3ccc(O)c(CN4CCCC(C)C4)c3oc2=O)cc1OC (stereo not given) | inactive
5 | CCCCOc1ncnc2c1[nH]c1ccccc12 | inactive
6 | Cc1ccc(C(=O)NCCCNc2ccc(C(F)(F)F)cc2[N+](=O)[O-])cc1 | inconclusive: 31.6 µM [inhibitor, partial curve, poor fit]
7 | Cc1nc2sc(-c3ccccc3)cc2c(=O)[nH]1 | inconclusive: 17.8 µM [inhibitor, single point]
8 | Cc1cccc(CSc2cccc3cccnc23)c1 | inconclusive: 39.8 µM [inhibitor, single point]
9 | O=C(N/N=C\c1ccccn1)C1c2ccccc2Oc2ccccc21 | inconclusive: 42.3 µM [inhibitor, single point]
10 | Cc1sc2ncnc(NCc3cccs3)c2c1C | inconclusive: 5.01 µM [inhibitor, partial curve, poor fit]
11 | Oc1ccc(C[C@H]2CN([C@@H](Cc3cccc(O)c3)CN3CCC[C@@H]3CN3C(=S)NC[C@@H]3Cc3ccccc3)C(=S)N2CC2CCCCC2)cc1 | active: 15.8 µM
12 | O=C(c1cc(-c2ccncc2)nc2ccccc12)N1CCN(Cc2ccccc2)CC1 | inactive
13 | Cc1ccc(S(=O)(=O)N2CCC(=O)N([C@H](COCc3cccc(Cl)c3)Cc3ccccc3)CC2)cc1 | inactive
14 | Cc1c(C(=O)NCc2ccc(C(F)(F)F)cc2)sc(=O)n1Cc1ccc(S(=O)(=O)N(C)C)cc1 | inconclusive: 14.1 µM [inhibitor, partial curve]
15 | C=CCc1cccc(/C=N/NC(=O)CNc2ccccc2)c1O | active: 17.8 µM
16 | C[C@H](NC(=O)c1[nH]cnc1C(=O)Nc1ccc(CNC(=O)OC(C)(C)C)cc1)C(=O)OCc1ccccc1 | inconclusive: 39.8 µM [inhibitor, single point]
17 | Cc1ccc(C(NC(=O)NC(C)c2ccccc2)C(Cl)(Cl)Cl)cc1F (stereo not given) | inconclusive: 17.8 µM [inhibitor, partial curve, poor fit]
18 | O=C(CCCSc1ccc(Cl)cc1)Nc1cc(S(=O)(=O)N2CCOCC2)ccc1O | inconclusive: 17.8 µM [inhibitor, partial curve, poor fit]
19 | O=C1[C@H]2CCCC[C@H]2C(=O)N1CCCCN1CCN(c2nsc3ccccc23)CC1 | inconclusive: 39.8 µM [inhibitor, single point]
20 | CC1=C(C(=O)OC2CCCCCCC2)C(c2cc3c(cc2Br)OCO3)CC(=O)N1 (stereo not given) | inconclusive: 39.8 µM [inhibitor, partial curve, poor fit]

Row | SMILES | Potency
21 | COc1ccc(CCn2c(=N)c(C(=O)NCC3CCCO3)cc3c(=O)n4cccc(C)c4nc32)cc1OC (stereo not given) | inconclusive: 8.91 µM [inhibitor, partial curve]
22 | CCOC(=O)c1nn(-c2ccc(Br)cc2)cc1C(=O)c1cccc2ccccc12 | inactive
23 | N#C/C(=C(/O)COC(=O)CCc1ccc(S(=O)(=O)N2CCOCC2)cc1)c1nc2ccccc2[nH]1 | inconclusive: 39.8 µM [inhibitor, single point]
24 | O=C(Nc1nc(OCCN2CCCC2=O)cnc1/C=C\c1ccccc1)c1cc2ccccc2s1 | inactive
25 | COc1ccc(/C=C/c2nc3ccccc3c(=O)o2)cc1 | inconclusive: 1.78 µM [inhibitor, partial curve, poor fit]
26 | Cc1ccn2c(Nc3ccc(C(C)C)cc3)c(-c3cccnc3)nc2c1 | inconclusive: 25.1 µM [inhibitor, single point]
27 | O=C(NC1CCS(=O)(=O)C1)c1cn(-c2ccccc2)nc1-c1ccccc1 (stereo not given) | inactive
28 | COc1cccc(CNS(=O)(=O)c2ccc3c(c2)C(C(C)C)C(=O)N3)c1 (stereo not given) | inactive
29 | CCCCc1c(-c2ccccc2OC)ncn1CCc1cccc(F)c1 | inconclusive: 39.8 µM [inhibitor, partial curve, poor fit]
30 | COc1ccc(NC(=O)CN2C(=O)COc3ccc(S(=O)(=O)N4CCCCC4)cc32)cc1OC | inactive
31 | OC(c1cccc(Cl)c1)c1nc(/C=C/c2ccc(C(F)(F)F)cc2)cs1 (stereo not given) | inconclusive: 39.8 µM [inhibitor, single point]
32 | C[C@H](CO)N1C[C@H](C)[C@@H](CN(C)S(C)(=O)=O)Oc2c(NC(=O)Nc3ccc4c(c3)OCO4)cccc2C1=O | inactive
33 | CN(C(=O)c1cccc(NC(=O)Cc2ccc([N+](=O)[O-])cc2)c1)C1CCC1 | inconclusive: 15.8 µM [inhibitor, partial curve, poor fit]
34 | COc1ccc(C2C=C(c3ccccc3)Nc3nc(NC(=O)/C=C/c4ccccc4Cl)nn32)cc1 (stereo not given) | inconclusive: 6.31 µM [inhibitor, single point]
35 | Cn1ccnc1SCC(=O)Nc1cccc(S(=O)(=O)N2CCCCC2)c1 | inactive
36 | Cc1ccccc1OCCn1cc(/C=C(\C#N)C(=O)NCc2ccco2)c2ccccc21 | inconclusive: 25.1 µM [inhibitor, single point]
37 | C[C@@H]1CN([C@H](C)CO)S(=O)(=O)c2ccc(Br)cc2O[C@H]1CN(C)C(=O)C1CCCCC1 | inconclusive: 39.8 µM [inhibitor, single point]
38 | O=C(N/N=C/c1cc([N+](=O)[O-])ccc1O)c1c[nH]c2ccccc12 | active: 14.1 µM
39 | COc1cccc2c1C(=O)c1c(O)c3c(c(O)c1C2=O)CC(O)(C(C)=NNC(=O)c1ccc(Cl)c(Cl)c1)CC3OC1CC(N)C(O)C(C)O1 (stereo not given) | inconclusive: 0.267 µM [inhibitor, full curve, poor fit]
40 | COc1ccc(NS(=O)(=O)c2ccc(N3CCCC3=O)cc2)cn1 | inconclusive: 12.6 µM [inhibitor, partial curve, poor fit]

Row | SMILES | Potency
41 | O=C(CN1CCc2ccccc2C1)Nc1ccccc1N1CCCCCC1 | inconclusive: 39.8 µM [inhibitor, single point]
42 | O=C(Nn1c(-c2ccc(F)cc2)nc2ccccc2c1=O)C1CCCCC1 | inactive
43 | Cc1n[nH]c(C)c1CCN(C)Cc1cn(C)nc1-c1ccccc1F | inconclusive: 37.7 µM [inhibitor, single point]
44 | O=S(=O)(Nc1ccc(O)c2ccccc12)c1ccc(OC(F)(F)F)cc1 | inconclusive: 31.6 µM [inhibitor, single point]
45 | CC1C(=O)N(Cc2cn(Cc3ccco3)nn2)CCS(=O)(=O)N1Cc1ccc(-c2ccccc2C(F)(F)F)cc1 (stereo not given) | inconclusive: 39.8 µM [inhibitor, single point]
46 | COc1ccccc1NC(=S)NCc1ccc(Cl)cc1 | inactive
47 | Cc1nn(C)c2c1c(-c1ccccc1)cc(=O)n2CC(=O)NC(C)c1ccccc1 (stereo not given) | inactive
48 | CCOC(=O)c1ccc(NC(=O)CNC(=O)c2ccco2)cc1 | inconclusive: 2.12 µM [inhibitor, partial curve, poor fit]
49 | Cc1cccc(N(CC(O)CON=C2c3ccccc3-c3ccccc32)S(C)(=O)=O)c1 (stereo not given) | inconclusive: 39.8 µM [inhibitor, single point]
50 | COc1ccc(Nc2oc(COc3ccccc3F)nc2C#N)cc1 | inconclusive: 28.2 µM [inhibitor, single point]
51 | Cc1cc(OCC(=O)NCc2cccnc2)c2c(C)c(Cc3ccccc3)c(=O)oc2c1 | inconclusive: 39.8 µM [inhibitor, single point]
52 | N#Cc1nc(-c2ccc(COc3ccc(Cl)cc3)o2)oc1N1CCC(C(N)=O)CC1 | active: 20 µM
53 | CCOC(=O)C1CCCN(Cc2c(C(=O)N3CCOCC3)nc3ccccn23)C1 (stereo not given) | inactive
54 | Cc1onc(-c2ccccc2)c1C(=O)NNC(=S)NC(=O)/C=C/c1cccs1 | inconclusive: 28.2 µM [inhibitor, partial curve, poor fit]
55 | Cc1cc(C)c2nc(N(CCCN(C)C)C(=O)c3ccc(S(=O)(=O)N4CCCCCC4)cc3)sc2c1 | inconclusive: 39.8 µM [inhibitor, single point]
56 | Cc1csc(-c2nnc(Nc3ccc(Oc4ncccc4-c4ccnc(N)n4)cc3)c3ccccc23)c1 | active: 12.2 µM
57 | Cc1ccc(S(=O)(=O)n2cc(C=O)c3ccccc32)cc1 | inconclusive: 28.2 µM [inhibitor, single point]
58 | C[n+]1c2cc(N)ccc2cc2ccc(N)cc21 (tested in a mixture with another compound) | active: 3.16 µM
59 | O=C(CCCNS(=O)(=O)c1ccc(Br)cc1)N1CC[C@@]2(O)CCCC[C@H]2C1 | inconclusive: 28.2 µM [inhibitor, single point]
60 | C#CCOCCOCCOCCNc1nc(N2CCN(C(=O)CCCCCCCCCCNC(=O)[C@@H](CCSC)n3cc(CCO)nn3)CC2)nc(N2CCN(C(=O)CCCCCCCCCCNC(=O)[C@H](CCCN=C(N)N)n3cc(C[C@@H](C)CC)nn3)CC2)n1 | inconclusive: 17.8 µM [inhibitor, partial curve]
